Measurements: PubChem BioAssay AID686970 (National Center for Advancing Translational Sciences (NCATS), 2013)
In all, about 360,000 compounds went through this assay and about 6,000 (1.7%) were called active. The shares of active, inactive and inconclusive entries below differ from those in the screen. Calls come from the whole dose curve; as a rule, active = well fitted cell-killing curve with a large enough effect; inconclusive = small, poorly fitted or top-dose-only effect, or effect the other way; inactive = flat fitted curve, though single readings scatter. No potency is given beside an inconclusive call; the fits are too rough.

Assay: qHTS for induction of synthetic lethality in tumor cells producing 2HG: qHTS for the HT-1080-NT fibrosarcoma cell line;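 note: NT is the 2HG producing partner of a matched IDH1 knockdown line; nearly all actives have a fitted effect of over 55% in size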;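 for activity, negative = less viability: 0% = DMSO-treated cells and -100% = media-only wells without cells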
Conditions: HT-1080-NT fibrosarcoma viability, CellTiter-Glo ATP luminescence, 48 h; activity, negative = less viability: at 46.1 µM (top of the series) unless noted
Method in brief: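 Viability by CellTiter-Glo luminescence after 48 h compound exposure at 37C of HT-1080-NT cells (750/well, RPMI, 5% FBS). % activity scaled between DMSO wells and medium-only wells, then curve-fitted and categorized by curve class.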
Potency is the fitted concentration of half-maximal effect; tags give direction and shape of the fitted curve.

SMILES | Potency | activity, negative = less viability
CCN(CC)C(=O)C1=C(C)N(Cc2ccc(C(C)(C)C)cc2)C(=O)C(CC(=O)NCC2CCCCC2)C1 (stereo unspecified) | inconclusive [cytotoxic, single point] | –
CC1Sc2ccc(S(=O)(=O)N3CCN(c4cccc(Cl)c4)CC3)cc2NC1=O (stereo unspecified) | inconclusive [cytotoxic, single point] | –
CC1CN(CC(O)c2ccc(Br)cc2)CCO1 (stereo unspecified) | – | inconclusive: 10.3% [cytotoxic]
CN(C1=C(N2CCCCC2)C(=O)c2ccccc2C1=O)c1ccccc1 | inconclusive [cytotoxic, single point] | –
NC(=O)c1c(NC(=O)c2ccc([N+](=O)[O-])o2)sc2c1CCCC2 | inconclusive [cytotoxic, partial curve] | –
CC1CCN(CCCNC(=O)c2cc3c(s2)-c2ccccc2OC3)CC1 | active: 23.1 µM | –
Cc1[nH][nH]c(=O)c1C=NCc1cccc(C(F)(F)F)c1 | – | inactive: 0.439%
Cc1cc2c(SCC(=O)Nc3cccc(O)c3)ncnc2s1 | – | inactive: -2.53%
CCOc1cc(/C=N/NC(=O)c2cc(-c3cccc(OC)c3)nc3ccccc23)ccc1O | – | inactive: -24.4%
CCC(NC(=O)c1cc(COc2ccc(C)nc2)on1)c1ccc(C)cc1 (stereo unspecified) | inconclusive [cytotoxic, single point] | –
O=C(Nc1ccncc1)c1ccc(Cl)c(S(=O)(=O)N2CCCCC2)c1 | inconclusive [cytotoxic, partial curve] | –
COc1ccc(-c2csc(NC(C)c3nc4cc(Cl)c(N5CCCCC5)cc4n3CCOCCO)n2)cc1 (stereo unspecified) | inconclusive [cytotoxic, single point] | –
O=C(CN1CC(c2ccccc2)CC1=O)N/N=C/c1cc(Br)ccc1O (stereo unspecified) | inconclusive [cytotoxic, full curve] | –
O=C(Nc1nc(-c2ccc(S(=O)(=O)N3CCOCC3)cc2)cs1)c1ccccc1 | inconclusive [cytotoxic, single point] | –
CC1Nc2nc(N(C)C)[nH]c(=O)c2NC1C (stereo unspecified) | – | inactive: 18.9%
Nc1nc(-c2ccco2)nn1C(=O)c1ccc([N+](=O)[O-])cc1 | inconclusive [rising, partial curve] | –
COc1ccc(-n2nnnc2C(CCSC)N2CCN(C/C=C/c3ccccc3)CC2)cc1 (stereo unspecified) | inconclusive [cytotoxic, single point] | –
COc1ccc(OC)c(-c2csc(NC(=O)C3=NN(c4ccccc4)C(=O)CC3)n2)c1 | – | inactive: -13.9%
Cc1sc2nc(CN(Cc3cccs3)C(=O)NC3CCCCC3)[nH]c(=O)c2c1C | inconclusive [cytotoxic, single point] | –
CCN(C[C@H]1N[C@@](Cc2ccccc2)(C(=O)OC)[C@H]2C(=O)N(Cc3ccccc3)C(=O)[C@@H]12)S(=O)(=O)c1ccc(F)cc1 | – | inactive: 8.75%
NC(c1csc(Nc2ncccn2)n1)c1ccccc1Cl (stereo unspecified) | inconclusive [cytotoxic, single point] | –
CC(C)(C)c1nc(NC(=O)Nc2ccccc2)sc1Br | inconclusive [cytotoxic, single point] | –
CC1CCN(C(=O)CCNC(=O)Cn2cnc3sc4c(c3c2=O)CCCC4)CC1 | – | inactive: -2.75%
CCc1nnc(NC(=O)CSc2nc3c(c(=O)n2CC)SC(C)C3)s1 (stereo unspecified) | – | inactive: 14.4%

SMILES | Potency | activity, negative = less viability
Cc1ccc2cc(CCNC(=O)c3cccc([N+](=O)[O-])c3)c(=O)[nH]c2c1 | – | inactive: 9.62%
Cc1cc2nc(-c3ccco3)c(Cc3cccc(F)c3)n2c(C)c1Br | active: 20.6 µM | –
O=C(NCCC1CCCCN1S(=O)(=O)c1cccs1)C(=O)Nc1ccccc1 (stereo unspecified) | – | inactive: -4.4%
O=[N+]([O-])c1ccc(Sc2ncccn2)c([N+](=O)[O-])c1 | active: 29.1 µM | –
O=C(NC(c1ccc(Cl)cc1)c1ccsc1)C1CCN(Cc2cccc(Cl)c2)CC1 (stereo unspecified) | inconclusive [cytotoxic, single point] | –
COc1ccc(C(=O)NNC(=S)NC(=O)c2ccc(F)cc2)cc1Br | inconclusive [cytotoxic, single point] | –
Cc1nc2c(c3c1[nH]c1ccccc13)C(=O)CC(C)(C)C2 | inconclusive [cytotoxic, single point] | –
Cc1ccc(OCCn2c(=O)cnc3ccccc32)cc1 | inconclusive [cytotoxic, single point] | –
CC(=O)c1cccc(Nc2nc(-c3ccccc3)cs2)c1 | – | inactive: -20.7%
O=C(CCCOc1ccccc1)N1CCCc2ccccc21 | – | inconclusive: -20.6% [cytotoxic]
Cc1nnc2sc(-c3csc4c3CCCC4)nn12 | – | inactive: 2.71%
CC12CCC(c3c(C(=O)Nc4nccs4)nn(-c4ccccc4)c31)C2(C)C (stereo unspecified) | inconclusive [cytotoxic, single point] | –
Cc1ccc2[nH]c3c(NCCCN4CCCC4=O)ncnc3c2c1 | – | inactive: -10.7%
CCOC(=O)C1=C(C)NC(=O)NC1c1cn(-c2ccccc2)nc1-c1cccs1 (stereo unspecified) | inconclusive [cytotoxic, single point] | –
COc1ccccc1N1CCN(C(=O)c2c(C)cc(=O)oc2C)CC1 | – | inactive: 18.5%
CCC(=O)Nc1cc(OC)c(NC(=S)Nc2ccccc2CC)cc1OC | – | inactive: 2.12%
Cc1ccc(F)c(S(=O)(=O)NC(=O)C2(C)CCN2C(=O)COc2ccc(Cl)cc2)c1 (stereo unspecified) | inconclusive [rising, partial curve] | –
O=C1C(Cc2ccccc2)Nc2ncnc(N3CCc4ccccc4C3)c2N1Cc1ccc(Cl)cc1 (stereo unspecified) | inconclusive [cytotoxic, single point] | –
O=C(Nc1ccc(Br)cc1)c1cccc(OC(=S)N2CCOCC2)c1 | inconclusive [cytotoxic, partial curve] | –
O=C(CSc1nnnn1-c1cccnc1)Nc1ccc(OCc2ccccc2)cc1 | inconclusive [cytotoxic, single point] | –
CCN(CC)S(=O)(=O)c1cccc(NC(=O)C2SC(=Nc3ccc(C)cc3C)C(C(=O)NC(C)COC)=C2N)c1 (stereo unspecified) | inconclusive [cytotoxic, single point] | –
COc1ccc(C(=O)NC(=S)NCCO)cc1Br | inconclusive [cytotoxic, single point] | –
CCCS(=O)(=O)N1CCN(c2ccccc2F)CC1 | – | inconclusive: 17.9%
Cc1c(OCC(=O)N(C)C)ccc2c3c(c(=O)oc12)CCCCC3 | – | inactive: 1.18%

SMILES | Potency | activity, negative = less viability
CCOc1ccc(CN(C(=O)/C=C/c2ccco2)C2CCS(=O)(=O)C2)cc1 (stereo unspecified) | inconclusive [rising, partial curve] | –
Cc1cccc(Nc2nc(N)c([N+](=O)[O-])c(NCc3ccccc3)n2)c1 | inconclusive [cytotoxic, single point] | –
COc1cc(C(=O)Nc2nnc(Cc3ccccc3)s2)cc(OC)c1OC | inconclusive [cytotoxic, partial curve] | –
Cc1cc(Cl)c(S(=O)(=O)N2CCSCC2)cc1OCC(=O)NC1CCCCC1 | inconclusive [cytotoxic, partial curve] | –
Cc1ccc(C)c(N2CCN(C(=O)c3cc4sccc4n3C)CC2)c1 | inconclusive [cytotoxic, single point] | –
CCc1ccc(OCC(=O)Nc2ccc(-c3cc4ccccc4oc3=O)c(OC)c2)cc1 | inconclusive [cytotoxic, partial curve] | –
Cc1cc(C)c(-n2c(C)cc(/C=C3/NC(=O)NC3=O)c2C)c(C)c1 | inconclusive [cytotoxic, single point] | –
COc1ccccc1NC(=O)Cc1noc(CSc2nnc(C)s2)n1 | – | inactive: 4.36%
COc1ccc(-c2c(-c3ccccc3OC)sc3ccccc23)cc1C=O | inconclusive [cytotoxic, single point] | –
COc1ccc(S(=O)(=O)NCc2cccs2)cc1 | – | inactive: 0.837%
Cc1ccc(S(=O)(=O)Nc2cc(C(C(=O)OC(C)C)C(=O)C(F)(F)F)c(O)c3ccccc23)c(C)c1 (stereo unspecified) | – | inconclusive: -31.7% [cytotoxic]
COc1cccc(/C=C/C(=O)Nc2ccc3[nH]c(=O)[nH]c3c2)c1 | inconclusive [rising, single point] | –
CCOc1cc(/C=N/Nc2nnc(C)n2N)ccc1OC(C)=O | active: 16.4 µM | –
CCc1ccc(OCc2nnc(SCC(=O)NCC3CCCO3)n2C)cc1 (stereo unspecified) | – | inconclusive: -8.11% [cytotoxic]
O=C(Nc1nnc(S(=O)(=O)N2CCCCCC2)s1)c1cccc(Br)c1 | active: 23.1 µM | –
CSCC[C@H](NC(=O)c1ccc(Cl)c(S(=O)(=O)N2CCCC2)c1)c1nc2ccccc2[nH]1 | inconclusive [cytotoxic, single point] | –
S=C(NCc1ccc(Cl)cc1Cl)NC1CCCCC1 | inconclusive [cytotoxic, single point] | –
COc1cccc(-c2cc(C(=O)Nc3ccccc3)c3ccccc3n2)c1 | – | inactive: -0.667%
Cc1sc2ncn(CC(=O)N3CCCCC3)c(=O)c2c1S(=O)(=O)N1CCC(C)CC1 | inconclusive [rising, partial curve] | –
Fc1cc2[nH]c(=S)[nH]c2c(Br)c1N1CCSCC1 | – | inactive: -29.1%
O=[N+]([O-])c1ccc(N2CCN(Cc3ccc(Br)o3)CC2)cc1 | – | inactive: -18.8%
Cc1ccc(C)c(Cn2c3ccccc3c3cnn(CC(=O)NCCN4CCOCC4)c(=O)c32)c1 | inconclusive [cytotoxic, single point] | –
NC(Cc1ccc(F)cc1)c1csc(Nc2ccc(C(F)(F)F)cn2)n1 (stereo unspecified) | inconclusive [cytotoxic, single point] | –
